About 220 (0.56%) of roughly 39,000 compounds showed activity. The list shows a part of the results.
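Further: static incubation at 37 °C against the wild-type strain, values averaged over two biological replicates.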

The assay concerns Escherichia coli K-12 BW25113. Description: relative growth (OD600 normalised to plate interquartile mean) (fraction); higher = less growth inhibition, active = 0.2 or less. Conditions: 50 µM; LB; incubation time: overnight (16-24 h).
Regarding `CN(C)Cc1cn(CC[C@H]2CC[C@H](NS(=O)(=O)c3ccccc3)[C@@H](CO)O2)nn1`, the relative growth is inactive: 0.983.

For the compound `COC(=O)[C@@H](NC(=O)c1cc(C)on1)C(C)C`, the relative growth is inactive: 0.95.

As for `C[C@@H]1CN([C@H](C)CO)C(=O)c2cc(NC(=O)NC3CCCCC3)ccc2O[C@@H](C)CCCCO[C@H]1CN(C)Cc1ccc(C(F)(F)F)cc1`, the relative growth was inactive: 1.01.

For the compound `COc1ccc(NC(=O)Nc2ccc3c(c2)C(=O)N([C@H](C)CO)C[C@H](C)[C@@H](CN(C)Cc2ccc(C(F)(F)F)cc2)O3)cc1`, the relative growth was inactive: 0.91.

In the case of `C#CCN(C)C1CCN(C(C)=O)CC1`, the relative growth was inactive: 0.989.

Regarding `Cc1ccc(Nc2nnc(-c3ccccc3)c3ccccc23)cc1`, the relative growth is inactive: 0.988.

For `C[C@@H]1CCCCO[C@@H](CN(C)C(=O)Nc2ccccc2)[C@@H](C)CN([C@H](C)CO)C(=O)c2cc(NC(=O)Nc3ccc(F)cc3)ccc2O1`, the relative growth is inactive: 0.88.

Take `C[C@@H]1CN([C@H](C)CO)C(=O)c2cc(NC(=O)Nc3ccccc3)ccc2O[C@@H](C)CCCCO[C@@H]1CN(C)Cc1ccc(C(F)(F)F)cc1`: the relative growth was inactive: 1.

In the case of `CCCC(=O)Nc1ccc2c(c1)OC[C@@H](C)N(S(=O)(=O)c1cn(C)cn1)C[C@H](C)[C@H](OC)CN(C)C2=O`, the relative growth was inactive: 1.02.

Consider `O=C(C[C@@H]1C=C[C@@H](NC(=O)c2cccnc2)[C@H](CO)O1)NCCN1CCCCC1`, for which the relative growth is inactive: 1.01.

Take `COCC#Cc1ccc2c(c1)O[C@H](CN(C)C(=O)c1ccccc1)[C@H](C)CN([C@@H](C)CO)S2(=O)=O`: the relative growth is inactive: 1.01.

Turning to `C[C@@H]1CN([C@H](C)CO)C(=O)c2cc(NC(=O)Nc3cccc4ccccc34)ccc2O[C@H]1CN(C)Cc1ccc(Cl)c(Cl)c1`, the relative growth was inactive: 1.02.

Take `CC(C)NC(=O)N(C)C[C@@H]1Oc2ccc(NC(=O)CCC(F)(F)F)cc2C(=O)N([C@@H](C)CO)C[C@H]1C`: the relative growth is inactive: 0.956.

On to `Cc1noc(C)c1S(=O)(=O)Nc1cccc2c1O[C@@H](CN(C)Cc1ccc(Oc3ccccc3)cc1)[C@@H](C)CN([C@@H](C)CO)C2=O`, for which the relative growth is inactive: 0.96.

For the compound `CCCCCN1CC=C[C@]23O[C@@H]4/C=C/CCC(=O)N(C)[C@H](C)[C@@H](c5ccccc5)OC(=O)[C@@H]4[C@H]2C(=O)N(c2ccccc2Cl)[C@@H]3C1=O`, the relative growth was inactive: 0.918.

In the case of `C[C@@H]1CN([C@@H](C)CO)C(=O)c2cc(NC(=O)Nc3ccccc3)ccc2O[C@H]1CN(C)S(C)(=O)=O`, the relative growth was inactive: 1.

For the compound `O=C([C@H]1[C@H](CO)[C@H]2Cn3c(cccc3=O)[C@H]2N1CC1CCCC1)N1CCOCC1`, the relative growth is inactive: 1.03.

The values above are taken from the supplement of paper PMC9446081.
